Measured values taken from PubChem BioAssay (Tox21).
Values joined by “and” are separate entries in the source; they are usually repeats but may differ in a detail not shown here. Equal values may be shown once. Active and inactive are the calls of the source. Unless noted, calls follow the shape of the dose curve; as a rule, active = well fitted curve in the direction sought with a large enough effect in the repeat runs; inconclusive = weak or mixed curves; inactive = no such curve, though single readings can be large; an effect the other way counts as inactive or inconclusive.

What was measured:
[1] = qHTS assay to identify small molecule agonists of the constitutive androstane receptor (CAR) signaling pathway - cell viability counter screen (AID 1224836); also: nearly all actives have a fitted effect of over 45% in size
Summary of the method: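 Using CellTiter-Fluor, viability of HepG2 cells harbouring hCAR and CYP2B6-2.2kb was measured following 23 h incubation with a 15-concentration compound series plus PK11195 (0.75 uM final).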

[2] = qHTS assay to identify small molecule antagonists of the constitutive androstane receptor (CAR) signaling pathway - cell viability counter screen (AID 1224837); also: nearly all actives have a fitted effect of over 45% in size
Summary of the method: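 To flag cytotoxic false antagonists, HepG2 hCAR/CYP2B6-2.2kb cells were treated 23 hr with 15-concentration compound series and 50 nM CITCO at 37 C/5% CO2; CellTiter-Fluor fluorescence was the measured end point.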

[3] = qHTS assay to identify small molecule antagonists of the estrogen related receptor signaling pathway with the pleiotropic PPARgamma coactivator (PGC) from Tox21 10K library - cell viability counter screen (AID 1224840; active = well fitted cell-killing curve with a large enough effect in the repeat runs, not every such curve was filed as active; inconclusive = weak or mixed curves, or effect the other way; inactive = no such curve, though single readings can be large or run the other way; also: nearly all actives have a fitted effect of over 40% in size)
Summary of the method: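 Seeded PGC/ERR cells (2,000/well, 6 h, 37 C/5% CO2) get compound by pin tool; 17.5 h incubation at 37 C; CellTiter-Fluor added, 30 min, fluorescence measured.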

[4] = qHTS assay to identify small molecule agonists of the TGF-beta/Smad signaling pathway (AID 1346859; active = well fitted activation curve with a large enough effect in the signal ratio in the repeat runs, not every such curve was filed as active; inconclusive = weak or mixed curves; the % refers to the signal ratio)
Summary of the method: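 Each well held 4,000 SBE-bla HEK 293T cells incubated overnight before compound addition; 5 hr later the cleavable FRET substrate went on for 2 hr at room temperature, and fluorescence was read at two emissions.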

[5] = qHTS assay to identify small molecule antagonists of the retinoic acid receptor (RAR) signaling pathway (AID 1159552; also: nearly all actives have a fitted effect of over 50% in size)
Summary of the method: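 C3RL4 RARE-luc cells, overnight plating; retinol 1 uM final added right after compound; 6 hr 37 C; luciferase read at 30 min RT.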

[6] = target: Nuclear receptor subfamily 1 group I member 3 (Homo sapiens) (UniProt Q14994); assay: qHTS assay to identify small molecule antagonists of the constitutive androstane receptor (CAR) signaling pathway (AID 1224838);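 also: HepG2 cells stably expressing hCAR with CYP2B6 luciferase reporter stimulated by CITCO; nearly all actives have a fitted effect of over 40% in size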; as to activity, negative = inhibition: % is scaled to controls: 0 for no effect and ±100 for the full control effect
UniProt Q14994, sequence (Q14994 whole entry, looked up): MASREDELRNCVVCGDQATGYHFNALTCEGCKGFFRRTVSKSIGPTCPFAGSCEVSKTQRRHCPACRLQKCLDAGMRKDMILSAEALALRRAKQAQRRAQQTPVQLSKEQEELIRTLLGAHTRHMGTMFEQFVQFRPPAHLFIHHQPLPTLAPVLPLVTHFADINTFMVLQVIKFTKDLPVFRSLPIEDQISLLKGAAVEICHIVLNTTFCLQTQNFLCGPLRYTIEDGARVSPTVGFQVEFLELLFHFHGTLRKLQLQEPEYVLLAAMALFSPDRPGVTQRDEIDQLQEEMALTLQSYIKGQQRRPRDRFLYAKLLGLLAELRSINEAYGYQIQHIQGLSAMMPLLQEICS
Summary of the method: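 Human hepatoma HepG2 cells expressing hCAR and a CYP2B6 promoter (2.2 kb) luciferase construct; compound titration (15 points) with 50 nM CITCO final, 24 h at 37 C/5% CO2; luminescence via ONE-Glo after 30 min at room temperature.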

[7] = qHTS RealTime-Glo MT Cell Viability Assay in HEK293 cells - 40 hour (AID 1224874); conditions: RealTime-Glo luminescence; max response: stronger effect = lower value; also: nearly all actives have a fitted effect of over 50% in size
Summary of the method: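 HEK293 + NanoLuc + prosubstrate, 600 cells/well; 5 h, 37 C/5% CO2; compound 23 nL in DMSO by pintool; 37 C; luminescence read at 0, 8, 16, 24, 32 and 40 h time points.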

[8] = target: Acetylcholinesterase (Homo sapiens) (UniProt P22303); assay: Acetylcholinesterase (AChE) small molecule antagonists: fluorescence cell-based qHTS assay (AID 1347398; calls by dose curve; also: nearly all actives have a fitted effect of over 50% in size); conditions: Potency: AChE activity
UniProt P22303, sequence (P22303 whole entry, looked up): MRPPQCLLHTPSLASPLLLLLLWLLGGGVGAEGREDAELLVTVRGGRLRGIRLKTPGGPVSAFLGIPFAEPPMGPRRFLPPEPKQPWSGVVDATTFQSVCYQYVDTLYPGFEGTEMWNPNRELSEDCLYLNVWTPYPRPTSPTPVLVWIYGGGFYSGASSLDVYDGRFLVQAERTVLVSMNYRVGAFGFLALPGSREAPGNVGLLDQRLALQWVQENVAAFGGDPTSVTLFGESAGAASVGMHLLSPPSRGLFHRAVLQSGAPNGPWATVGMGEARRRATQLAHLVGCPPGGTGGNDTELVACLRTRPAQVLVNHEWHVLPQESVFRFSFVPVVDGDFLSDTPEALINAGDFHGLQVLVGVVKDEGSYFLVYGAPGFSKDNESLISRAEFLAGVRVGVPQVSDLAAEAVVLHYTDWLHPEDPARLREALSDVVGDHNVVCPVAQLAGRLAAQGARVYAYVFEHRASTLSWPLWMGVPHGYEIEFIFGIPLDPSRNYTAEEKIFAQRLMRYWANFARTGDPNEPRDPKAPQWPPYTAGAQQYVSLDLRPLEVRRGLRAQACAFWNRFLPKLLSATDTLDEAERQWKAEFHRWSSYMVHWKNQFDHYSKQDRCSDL
Summary of the method: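 Cellular AChE activity read as thiocholine from acetylthiocholine hydrolysis, detected by Thiolite Green fluorescence at 490/520 nm after 40 min at room temperature. Compounds were pre-incubated 30 min at 37 C on adherent SH-SY5Y cells.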

[9] = target: Cytochrome P450 3A4 (Homo sapiens) (UniProt P08684); assay: Cytochrome P450 Family 3 Subfamily A Member 4 (CYP3A4) small molecule antagonists: luciferase reporter qHTS assay (AID 1671201); also: nearly all actives have a fitted effect of over 50% in size
UniProt P08684, sequence (P08684 whole entry, looked up): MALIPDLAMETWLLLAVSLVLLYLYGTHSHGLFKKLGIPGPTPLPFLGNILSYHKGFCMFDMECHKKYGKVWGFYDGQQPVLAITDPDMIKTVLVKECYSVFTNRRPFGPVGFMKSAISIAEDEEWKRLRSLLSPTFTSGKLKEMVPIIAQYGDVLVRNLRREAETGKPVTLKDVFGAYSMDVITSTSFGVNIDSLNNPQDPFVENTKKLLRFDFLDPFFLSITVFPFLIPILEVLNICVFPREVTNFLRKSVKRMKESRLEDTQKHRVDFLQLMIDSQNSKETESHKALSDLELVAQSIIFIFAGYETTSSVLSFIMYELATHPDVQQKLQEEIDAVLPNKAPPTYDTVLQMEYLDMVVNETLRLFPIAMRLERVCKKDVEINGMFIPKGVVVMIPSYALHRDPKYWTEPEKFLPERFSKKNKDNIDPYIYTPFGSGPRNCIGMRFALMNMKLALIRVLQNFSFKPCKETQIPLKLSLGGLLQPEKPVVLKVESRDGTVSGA
Summary of the method: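 Proluciferin-to-luciferin conversion by CYP3A4, NADPH-regenerated, 1 h RT; luminescence read as RLU. Ketoconazole as control.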

[10] = target: Estrogen receptor (Homo sapiens) (UniProt P03372); assay: qHTS assay to identify small molecule antagonists of the estrogen receptor alpha (ER-alpha) signaling pathway (AID 743069; active = well fitted curve in the direction sought with a large enough effect in the signal ratio in the repeat runs, not every such curve was filed as active; inconclusive = weak or mixed curves, or effect the other way; inactive = no such curve, though single readings can be large or run the other way; the % refers to the signal ratio; as to activity, negative = inhibition: % is scaled to controls: 0 for no effect and ±100 for the full control effect); conditions: HEK293 ER-alpha-UAS-bla, beta-lactamase ratio, antagonist mode; activity, negative = inhibition: at 69.4 µM (top of the series) unless noted
UniProt P03372, sequence (P03372 whole entry, looked up): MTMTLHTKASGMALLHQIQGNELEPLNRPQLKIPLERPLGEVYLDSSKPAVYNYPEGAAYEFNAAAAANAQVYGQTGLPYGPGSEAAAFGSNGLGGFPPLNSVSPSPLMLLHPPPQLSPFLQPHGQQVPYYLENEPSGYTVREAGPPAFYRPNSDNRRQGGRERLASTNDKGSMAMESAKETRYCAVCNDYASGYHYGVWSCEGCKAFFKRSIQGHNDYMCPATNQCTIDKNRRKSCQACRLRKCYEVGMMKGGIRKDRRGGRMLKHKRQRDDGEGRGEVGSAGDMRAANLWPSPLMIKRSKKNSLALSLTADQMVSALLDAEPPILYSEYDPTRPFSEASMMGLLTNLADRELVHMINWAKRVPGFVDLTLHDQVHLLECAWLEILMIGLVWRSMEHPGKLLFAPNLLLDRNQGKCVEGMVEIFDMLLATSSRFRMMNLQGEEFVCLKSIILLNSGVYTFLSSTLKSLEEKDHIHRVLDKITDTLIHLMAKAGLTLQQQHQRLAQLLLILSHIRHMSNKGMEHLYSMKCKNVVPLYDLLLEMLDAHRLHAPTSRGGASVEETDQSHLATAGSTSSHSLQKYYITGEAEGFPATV
Summary of the method: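 Antagonist mode: compounds in DMSO were co-added with 17beta-estradiol to ER-alpha-bla HEK293 cells (2% charcoal-stripped serum) and left 18 h at 37C. Reporter inhibition was measured as FRET fluorescence after 2 h LiveBLAzer substrate at room temperature.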

[11] = qHTS assay to identify small molecule antagonists of the androgen receptor (AR) signaling pathway - cell viability counter screen (AID 743033; also: nearly all actives have a fitted effect of over 45% in size; as to activity change, negative = cytotoxicity: % is scaled to controls: 0 for no effect and ±100 for the full control effect)
[12] = qHTS assay to identify small molecule antagonists of the thyroid receptor (TR) signaling pathway (AID 743065); also: nearly all actives have a fitted effect of over 55% in size
Summary of the method: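 Antagonism measured as loss of luciferase signal in GH3 cells stably carrying a TRE-luciferase reporter, co-treated with compound and T3 (1 nM final) for 23.5 h at 37 C. Viability was read in the same well by CellTiter-Fluor.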

[13] = A CellTox Green Cytotoxicity Assay to monitor cytotoxicity in HepG2 cells - 24 hour (AID 1224878); also: nearly all actives have a fitted effect of over 45% in size; as to Cytotoxicity: % is scaled to controls: 0 for no effect and ±100 for the full control effect
Summary of the method: (§1)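 Measurements at 0, 8, 16, 24, 32 and 40 h of treatment captured CellTox Green fluorescence in HepG2 cells that had been co-plated with reagent and preincubated 5 h at 37 C/5% CO2.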

[14] = A CellTox Green Cytotoxicity Assay to monitor cytotoxicity in HEK293 cells - 32 hour (AID 1224881); also: nearly all actives have a fitted effect of over 40% in size
Summary of the method: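 Tox21 screen in HEK293: membrane-impermeant cyanine dye fluoresces on binding dead-cell DNA; compound pinned 5 h post-seeding, plates held at 37 C, signal read repeatedly through 40 h.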

[15] = A CellTox Green Cytotoxicity Assay to monitor cytotoxicity in HepG2 cells - 32 hour (AID 1224883); also: nearly all actives have a fitted effect of over 50% in size
Summary of the method: as §1

[16] = target: Voltage-gated inwardly rectifying potassium channel KCNH2 (Homo sapiens) (UniProt Q12809); assay: Human Ether-a-go-go-Related Gene (hERG) channel small molecule antagonists: fluorescence cell-based qHTS assay (AID 1671200); also: nearly all actives have a fitted effect of over 50% in size
UniProt Q12809, sequence (Q12809 whole entry, looked up): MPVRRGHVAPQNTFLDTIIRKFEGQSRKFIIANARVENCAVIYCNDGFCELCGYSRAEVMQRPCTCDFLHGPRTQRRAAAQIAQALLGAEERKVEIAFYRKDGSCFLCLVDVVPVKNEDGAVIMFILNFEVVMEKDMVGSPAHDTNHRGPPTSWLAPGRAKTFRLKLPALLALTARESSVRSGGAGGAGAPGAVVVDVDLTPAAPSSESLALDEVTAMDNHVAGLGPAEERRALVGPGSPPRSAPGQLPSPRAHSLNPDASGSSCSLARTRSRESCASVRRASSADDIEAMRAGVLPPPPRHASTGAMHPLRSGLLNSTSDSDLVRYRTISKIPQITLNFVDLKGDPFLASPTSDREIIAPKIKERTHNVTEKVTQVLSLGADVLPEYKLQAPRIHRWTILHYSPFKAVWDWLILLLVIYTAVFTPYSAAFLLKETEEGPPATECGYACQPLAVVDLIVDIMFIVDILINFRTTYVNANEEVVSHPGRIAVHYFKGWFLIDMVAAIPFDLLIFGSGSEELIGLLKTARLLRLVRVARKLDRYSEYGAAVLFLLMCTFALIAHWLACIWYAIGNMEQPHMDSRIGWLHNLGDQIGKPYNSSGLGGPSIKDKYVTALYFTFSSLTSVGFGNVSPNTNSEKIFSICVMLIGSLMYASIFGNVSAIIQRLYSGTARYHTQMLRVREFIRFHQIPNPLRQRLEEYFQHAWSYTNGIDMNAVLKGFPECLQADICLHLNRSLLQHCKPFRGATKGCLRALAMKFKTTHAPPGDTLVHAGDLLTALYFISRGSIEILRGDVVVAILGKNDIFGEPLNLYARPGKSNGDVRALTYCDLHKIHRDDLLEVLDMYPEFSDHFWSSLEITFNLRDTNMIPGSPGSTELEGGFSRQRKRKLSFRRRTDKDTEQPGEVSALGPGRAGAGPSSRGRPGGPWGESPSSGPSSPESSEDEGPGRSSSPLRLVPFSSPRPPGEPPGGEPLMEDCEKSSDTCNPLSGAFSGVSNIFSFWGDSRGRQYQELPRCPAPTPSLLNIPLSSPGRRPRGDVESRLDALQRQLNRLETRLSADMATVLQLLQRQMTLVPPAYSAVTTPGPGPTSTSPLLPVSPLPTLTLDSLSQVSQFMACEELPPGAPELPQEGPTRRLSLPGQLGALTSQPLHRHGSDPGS
Summary of the method: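 Kinetic two-minute fluorescence traces, sampled at 1 s, were collected following thallium stimulus of U2OS cells (1000 per well) that had been cultured overnight at 37 C and loaded with FluxOR II.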

[17] = qHTS assay to identify small molecule antagonists of the estrogen related receptor (ERR) signaling pathway from Tox21 library (AID 1224848); also: nearly all actives have a fitted effect of over 50% in size
Summary of the method: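 Luciferase luminescence (ONE-Glo, 30 min room temperature) was the read-out. Cells of the NTP-supplied ERR line, 2,000 per well, were given 6 h at 37 C before compound addition in DMSO and 18 h exposure at 37 C.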

[18] = qHTS assay for small molecule activators of the heat shock response signaling pathway - cell viability counter screen (AID 743209); conditions: HSE-bla HeLa viability, CellTiter-Glo luminescence, 5 h; activity change, negative = cytotoxicity: at 62.6 µM (top of the series); also: nearly all actives have a fitted effect of over 50% in size
Summary of the method: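 To flag cytotoxic compounds, HSE-bla HeLa cells plated at 1500 cells/well were dosed for 5 h at 37 C, followed by the reporter FRET read and then CellTiter-Glo, with luminescence recorded 30 min after reagent addition.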

[19] = qHTS assay to identify small molecule agonists of the estrogen receptor alpha (ER-alpha) signaling pathway in the presence of an antagonist - cell viability counter screen (AID 1259386);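 also: cells exposed to compounds for 22 h at 37 °C before the viability read; nearly all actives have a fitted effect of over 30% in size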
Summary of the method: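 The test measures whether compounds kill ER-alpha reporter cells (VM7Luc4E2) under antagonist co-treatment (ICI-182,780, 10.0nM). Fluorescence from CellTiter-Fluor is read after a 22hr exposure.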
Potency is read from the fitted curve at half-maximal effect; tags tell the direction and shape of the fitted curve or compound fluorescence and quenching.

In the case of `C[C@]12CC[C@H](O)C[C@H]1CC[C@@H]1[C@@H]2C[C@@H](O)[C@]2(C)[C@@H](C3=CC(=O)OC3)CC[C@]12O`, the Potency [1] is reported as inconclusive: 15.4 µM [cytotoxic, full curve], the Potency [2] is reported as inconclusive: 2.43 µM [cytotoxic, full curve] and the Potency [3] is reported as inconclusive: 1.93 µM [cytotoxic, full curve]. The Potency [4] was inconclusive: 3.89 µM [rising, full curve].
In the case of `NC(=O)c1ccc(N)nc1`, the Potency [5] is reported as inconclusive: 30.6 µM [inhibitor, partial curve, poor fit] and the Potency [6] is reported as “inactive”.
With `CCOP(=S)(OCC)SCCS(=O)(=O)CC` the Potency [5] was inconclusive: 54.5 µM [inhibitor, partial curve, poor fit], the Potency [7] was inconclusive: 61.6 µM [rising, partial curve, poor fit] and the Potency [8] was active: 35.6 µM. The Potency [9] was active: 1.59 µM.
With `C[N+]1(CCF)[C@@H]2CC[C@H]1CC(OC(=O)C(O)(c1ccccc1)c1ccccc1)C2` (stereo partly drawn) the Potency [10] was inconclusive: 2.68 µM [cytotoxic, partial curve], the Potency [6] was inconclusive: 2.37 µM [inhibitor, full curve] and the Potency [8] was inconclusive: 0.871 µM [inhibitor, single point].
In the case of `CC[N+]1(CC)CCC(OC(=O)C(O)(c2ccccc2)c2ccccc2)C1` (stereo not drawn), the Potency [1] is reported as inconclusive: 13.3 µM [rising, single point].
In the case of `CC1(C(=O)Nc2ccc(O)c(Cl)c2Cl)CCCCC1`, the Potency [11] is reported as “inactive”, the Potency [12] is reported as inconclusive: 68.6 µM [inhibitor, single point] and the Potency [6] is reported as inconclusive: 2.43 µM [inhibitor, single point]. The Potency [7] was inconclusive: 54.9 µM [cytotoxic, single point], the Potency [13] was inconclusive: 49 µM [activator, single point] and the Potency [14] was inconclusive: 54.9 µM [activator, single point]. The Potency [15] was inconclusive: 54.9 µM [activator, single point] and the Potency [9] was inconclusive: 31.7 µM [inhibitor, partial curve].
With `C[C@H]1[C@@H]2Cc3ccc(O)cc3[C@@]1(C)CCN2C` the Potency [12] was inconclusive: 184 µM [inhibitor, partial curve, poor fit] and the Potency [15] was “inactive”.
With `c1cc[c]([Sb]([c]2ccccc2)[c]2ccccc2)cc1` the Potency [6] was inconclusive: 61.1 µM [inhibitor, single point], the Potency [3] was inconclusive: 15.4 µM [cytotoxic, single point] and the Potency [4] was inconclusive: 30.9 µM [rising, partial curve]. For the same molecule, the Potency [16] was inconclusive: 19.5 µM [inhibitor, partial curve] and the Potency [9] was inconclusive: 17.8 µM [inhibitor, partial curve, poor fit].
For `ClCc1cccc(Cl)c1`, the Potency [13] was “inactive” and the Potency [14] was “inactive”.
For `OC(Cc1ccccc1Cl)(Cn1cncn1)C1(Cl)CC1` (stereo not drawn), the Potency [1] was inconclusive: 68.6 µM [cytotoxic, single point], the Potency [17] was active: 48.6 µM and the Potency [14] was inconclusive: 34.7 µM [activator, partial curve, poor fit].
With `CC[n+]1c(-c2ccccc2)c2cc(N)ccc2c2ccc(N)cc21` the Potency [11] was inconclusive: 19 µM [cytotoxic, partial curve] and active: 12 µM and active: 4.88 µM, the Potency [12] was inconclusive: 29.8 µM [inhibitor, partial curve] and the Potency [10] was active: 26.8 µM [inconclusive] and active: 30.8 µM [inconclusive]. The activity, negative = inhibition [10] was inconclusive: -5.62%, the Potency [18] was inconclusive: 61.4 µM [cytotoxic, single point] and inactive and the Potency [1] was inconclusive: 15 µM [cytotoxic, partial curve, poor fit]. For the same molecule, the Potency [2] was inconclusive: 11.9 µM [cytotoxic], the Potency [6] was active: 21.6 µM and active: 13.3 µM and the Potency [3] was inconclusive: 9.44 µM [cytotoxic, full curve, poor fit]. For the same molecule, the Potency [19] was active: 48.3 µM and active: 26.6 µM and the Potency [8] was active: 31.6 µM and active: 12.3 µM.
In the case of `CCOP(=S)(OCC)SCS(=O)(=O)CC`, the Potency [8] is reported as active: 2.52 µM.
With `CNC(=O)Oc1ccccc1OC(C)C` the Potency [19] was inconclusive: 2.73 µM [cytotoxic, single point].
In the case of `CCN(CC)C(C)C(=O)c1ccccc1` (stereo not drawn), the Potency [6] is reported as “inactive”, the Potency [3] is reported as “inactive” and the Potency [8] is reported as “inactive”.
With `O=C1C=CC(=O)c2ccccc21` the Potency [5] was active: 27.3 µM, the Potency [2] was active: 43.3 µM and the Potency [6] was inconclusive: 68.6 µM [inhibitor, single point]. For the same molecule, the Potency [3] was active: 61.1 µM, the Potency [13] was active: 12.3 µM and the Potency [19] was active: 30.6 µM. For the same molecule, the Potency [4] was inconclusive: 19.5 µM and the Potency [16] was active: 21.9 µM.
